# Some of the results follow. Values were computed here from the reads of four pooled replicates and scatter widely.
# Biological target: T1, Pho4 (S. cerevisiae) (UniProt P07270)
# T1 sequence: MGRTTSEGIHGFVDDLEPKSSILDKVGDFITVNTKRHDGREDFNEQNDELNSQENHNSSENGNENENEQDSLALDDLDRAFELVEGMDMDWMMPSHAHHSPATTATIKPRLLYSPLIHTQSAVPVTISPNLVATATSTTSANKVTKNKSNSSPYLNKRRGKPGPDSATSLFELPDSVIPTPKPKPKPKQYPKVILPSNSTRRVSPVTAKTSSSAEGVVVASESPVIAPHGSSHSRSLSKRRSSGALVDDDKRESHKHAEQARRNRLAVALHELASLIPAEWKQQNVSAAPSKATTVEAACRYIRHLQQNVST
# Test: relative binding free energy (BET-seq); higher = weaker binding
# Details: reference: library average
row,Sequence,relative binding free energy
1,TAGTACACGTGGCGTG,-0.08 kcal/mol
2,TCGTACACGTGTGTGA,0.03 kcal/mol
3,AAGGGCACGTGGATTG,-0.17 kcal/mol
4,TTCTTCACGTGGGGTG,0.1 kcal/mol
5,GGGGGCACGTGGGTCT,-0.11 kcal/mol
6,GGTGACACGTGGATTG,0.15 kcal/mol
7,TGCGTCACGTGATAGG,0.16 kcal/mol
8,AATTTCACGTGGGTAA,0.2 kcal/mol
9,AGTGTCACGTGAGATA,0.24 kcal/mol
10,TTTTACACGTGGTAAA,0.01 kcal/mol
11,GCTTGCACGTGGGATT,-0.17 kcal/mol
12,GTACGCACGTGGTATA,-0.06 kcal/mol
13,AGTCACACGTGTAGTT,-0.01 kcal/mol
14,GAGTGCACGTGGTGAG,0.05 kcal/mol
15,AGTAACACGTGGCGGG,-0.02 kcal/mol
16,GCGTTCACGTGGTGCA,0.3 kcal/mol
17,ATTATCACGTGTTGGA,0.14 kcal/mol
18,GTAAACACGTGTTGTT,0.04 kcal/mol
19,GTACGCACGTGGGAGG,-0.24 kcal/mol
20,GTTGGCACGTGAGTAT,0.05 kcal/mol
21,AATGCCACGTGGCGTG,-0.11 kcal/mol
22,AAAGTCACGTGTGATG,0.14 kcal/mol
23,TGGGGCACGTGGACTA,-0.21 kcal/mol

row,Sequence,relative binding free energy
1,GGAGTCACGTGTTATA,0.12 kcal/mol
2,TGAAACACGTGTTTTG,0 kcal/mol
3,ATTCACACGTGTAGGG,0.11 kcal/mol
4,TGTTTCACGTGGCTGT,0.14 kcal/mol
5,AGTGGCACGTGACTGT,-0.05 kcal/mol
6,GTCTGCACGTGTCGGG,0.11 kcal/mol
7,TGGGACACGTGCGAGT,0.02 kcal/mol
8,GTGATCACGTGAAGGC,0.3 kcal/mol
9,GTTTGCACGTGCTTGC,0.05 kcal/mol
10,GTTTTCACGTGAGCGA,0.42 kcal/mol
11,GGCGACACGTGGGGTC,-0.18 kcal/mol
12,TTATCCACGTGTTGTT,0.04 kcal/mol
13,GGGATCACGTGTGTTT,0.29 kcal/mol
14,GTGGTCACGTGTTGTC,0.12 kcal/mol
15,GATATCACGTGGTGCT,0.15 kcal/mol
16,GTATGCACGTGGAGTC,-0.03 kcal/mol
17,ATTCTCACGTGTGTAG,0.03 kcal/mol
18,GTGTCCACGTGTGTAG,0.05 kcal/mol
19,CGTATCACGTGCAGGG,0.1 kcal/mol
20,TCGCTCACGTGGTGGG,0.23 kcal/mol
21,ATTTGCACGTGTGTAA,0 kcal/mol
22,TTCGGCACGTGCTTAG,-0.09 kcal/mol
23,CTGTTCACGTGTATGT,0.24 kcal/mol

row,Sequence,relative binding free energy
1,GTATTCACGTGAGGAT,0.24 kcal/mol
2,CCGGTCACGTGGTTGT,0.22 kcal/mol
3,ATGGGCACGTGGTGGA,-0.17 kcal/mol
4,TTGGGCACGTGACGAA,0.11 kcal/mol
5,AGATTCACGTGTTGCG,0.28 kcal/mol
6,TAATACACGTGGTAGT,-0.02 kcal/mol
7,CAATTCACGTGAGGTT,0.29 kcal/mol
8,CGAGGCACGTGAATTT,0.36 kcal/mol
9,TTGGTCACGTGGATAT,0.09 kcal/mol
10,ATTAGCACGTGGGAGA,-0.18 kcal/mol
11,TTGGGCACGTGTTAGT,-0.01 kcal/mol
12,GTGTCCACGTGTGTGT,0.08 kcal/mol
13,TTTCTCACGTGAAAGG,0.43 kcal/mol
14,TGGTGCACGTGCGAGT,-0.07 kcal/mol
15,TCTGGCACGTGTGGAT,0.14 kcal/mol
16,ATTTGCACGTGAAGGT,0.29 kcal/mol
17,GGTATCACGTGTCGCG,0.19 kcal/mol
18,TACAGCACGTGTTAGT,-0.05 kcal/mol
19,GGTCGCACGTGGAATT,0.19 kcal/mol
20,CTGGGCACGTGGTGAA,-0.25 kcal/mol
21,TAATACACGTGTCGTA,0.1 kcal/mol
22,TTATACACGTGGAAGG,0.11 kcal/mol
23,CGTCACACGTGGGGTG,-0.06 kcal/mol

row,Sequence,relative binding free energy
1,CGGGTCACGTGAGCTG,0.25 kcal/mol
2,AGATTCACGTGTAGTG,0.16 kcal/mol
3,TTGCTCACGTGGGAGG,0.2 kcal/mol
4,AAAAGCACGTGTAGTG,-0.02 kcal/mol
5,GGAGCCACGTGATCGG,0.24 kcal/mol
6,AACTTCACGTGTGAGG,0.32 kcal/mol
7,GGTTGCACGTGGCTTT,-0.02 kcal/mol
8,GGAGTCACGTGTGCTT,0.03 kcal/mol
9,GGATACACGTGGTACG,0.08 kcal/mol
10,TAACGCACGTGGTTGT,-0.1 kcal/mol
11,AGGTGCACGTGTCGTA,-0.06 kcal/mol
12,CTAGGCACGTGTTAGT,-0.27 kcal/mol
13,TGCATCACGTGAGTTT,0.09 kcal/mol
14,GGCGTCACGTGTGTGG,0.18 kcal/mol
15,CGGTGCACGTGTAGAA,0.06 kcal/mol
16,TATGGCACGTGTATCG,0.02 kcal/mol
17,GGGGTCACGTGCTAGT,0 kcal/mol
18,ATGTTCACGTGTGTAA,0.29 kcal/mol
19,ATAGGCACGTGGGCTT,-0.16 kcal/mol
20,TTAGGCACGTGGGACT,-0.29 kcal/mol
21,GTATGCACGTGAGGGT,0.28 kcal/mol
22,AGGGTCACGTGAGGAG,0.21 kcal/mol
23,CTGCTCACGTGTGTAG,0.2 kcal/mol

row,Sequence,relative binding free energy
1,AGTTGCACGTGTCATG,0.02 kcal/mol
2,AAAGTCACGTGGGGAT,0.08 kcal/mol
3,TAGATCACGTGGGCAA,0.29 kcal/mol
4,ATATTCACGTGAGCTT,0.25 kcal/mol
5,GGCGGCACGTGATTTG,0.17 kcal/mol
6,GACATCACGTGGGTGG,-0.07 kcal/mol
7,GGTGCCACGTGAGGAG,0.19 kcal/mol
8,TTAGCCACGTGTTCGG,-0.1 kcal/mol
9,TGAGGCACGTGGATTG,0.04 kcal/mol
10,CCGAGCACGTGGTGGG,-0.22 kcal/mol
11,TGTGCCACGTGGAGGC,-0.09 kcal/mol
12,TGAGACACGTGGCAGT,0.01 kcal/mol
13,GATTGCACGTGCGTGA,0.03 kcal/mol
14,ACGGTCACGTGTTGTA,0.01 kcal/mol
15,GCGTACACGTGGGGGG,-0.01 kcal/mol
16,ATGGACACGTGTTATC,0.15 kcal/mol
17,CCGTACACGTGGTGTG,-0.01 kcal/mol
18,TTGTTCACGTGTGGCT,0.4 kcal/mol
19,TGCATCACGTGTGTGC,0.17 kcal/mol
20,TGTTACACGTGCAAGG,0.23 kcal/mol
21,GTGGGCACGTGACTGT,0.06 kcal/mol
22,ATGTTCACGTGGTATT,0.1 kcal/mol
23,CATAACACGTGTTGGT,-0.04 kcal/mol

# — the BET-seq Pho4 binding data (Le et al. 2018)
